According to PubChem BioAssay AID485344 (National Center for Advancing Translational Sciences (NCATS), 2010):
Screen size: about 340,000 compounds; about 6,900 (2%) were called active. No stated cut-off is given here; in the data, active means inhibition above about 30%; inactive means below that, where a call was filed. The list shows a part of the results, in another mix than the full data. Where no call is shown, the source filed none.

biological target: D(2) dopamine receptor (Homo sapiens) (UniProt P14416); test: HTS Assay for Allosteric Antagonists of the Human D2 Dopamine Receptor: Primary Screen for Antagonists; settings: HEK293 TREx D2 cells, calcium flux, dopamine EC80; at 10 µM; stronger effect = higher value; further: 0% is about no effect
UniProt P14416, sequence (P14416 whole entry, looked up): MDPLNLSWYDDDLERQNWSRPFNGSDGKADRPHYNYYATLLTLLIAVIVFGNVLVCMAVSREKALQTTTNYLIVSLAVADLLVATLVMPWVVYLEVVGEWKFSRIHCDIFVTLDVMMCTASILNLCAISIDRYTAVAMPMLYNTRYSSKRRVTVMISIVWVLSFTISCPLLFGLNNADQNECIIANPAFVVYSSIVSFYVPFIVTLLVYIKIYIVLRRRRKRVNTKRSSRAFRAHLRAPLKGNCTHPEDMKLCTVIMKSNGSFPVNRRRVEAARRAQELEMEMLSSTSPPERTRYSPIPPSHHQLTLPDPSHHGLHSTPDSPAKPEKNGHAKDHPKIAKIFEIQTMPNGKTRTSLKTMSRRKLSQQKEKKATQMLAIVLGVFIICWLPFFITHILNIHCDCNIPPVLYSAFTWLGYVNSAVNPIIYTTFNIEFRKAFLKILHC
Procedure, shortened: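 Dopamine at EC80 is the agonist stimulus; test compounds precede it by 180 s. Calcium flux read kinetically in a force-coupled, inducible HEK293 T-REx D2 cell line.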

Row | Structure (SMILES) | inhibition
1 | CCN(CC)C(=O)Cn1c(=O)n(-c2ccc(Cl)cc2)c(=O)c2c3c(sc21)CCCCC3 | 7.02%
2 | CC(C)(C)C1(c2ccccc2)NC(=O)N(CC(=O)N2CCOCC2)C1=O (stereo unspecified) | active: 43.8%
3 | CCCN(Cc1cccs1)C(=O)Nc1cc(C)cc(C)c1 | 6.63%
4 | CCc1ccccc1Nc1nn2c(=O)c3ccc(C(=O)NC4CCC(C)CC4)cc3nc2s1 (stereo unspecified) | 12.6%
5 | Cc1oc(-c2ccccc2)nc1Cn1c(SCc2cccc(C(F)(F)F)c2)nc2cccnc21 | 11%
6 | CCc1cnc2c(c1SCc1c(F)cccc1Cl)c(=O)n(C)c(=O)n2C | 3.48%
7 | COc1ccc(-n2ncc(C(=O)N3CCN(Cc4ccccc4)CC3)c2C2CCN(C(=O)OC(C)(C)C)CC2)cc1 | -3.6%
8 | CCOC(=O)c1ccc(NC(=O)CC2C(=O)N(c3ccccc3)C(=O)N2Cc2ccc(C)cc2)cc1 (stereo unspecified) | 22.2%
9 | Cc1nn(C(=O)COc2ccc(Cl)cc2)c(C)c1Sc1ccccc1 | -4.02%
10 | COc1ccc(C(=O)Nc2cnc3ccccn3c2=O)cc1 | -22.1%
11 | CCOC(=O)c1c(NC(=O)c2ccc(S(=O)(=O)N3CCC(C)CC3)cc2)sc2c1CCN(C(C)C)C2 | 2.17%
12 | COc1ccc(CCNC(=O)CCCn2c(=O)c3ccccc3n(CC(=O)Nc3cccc(C)c3)c2=O)cc1OC | -16.6%
13 | CC(C)(C)C(=O)Nc1ccc(-c2nc3ccccc3s2)cc1 | 13.1%
14 | CCc1ccc(CN2C(=O)c3ccccc3C2C(=O)NC2CCCCCC2)cc1 (stereo unspecified) | 11.4%
15 | CCOc1ccc(-c2c(C)nn3c(C)c(C(=O)NCc4cccc(OC)c4)cnc23)cc1OCC | -9.75%
16 | N#Cc1ccc(OC(=O)c2cc(-c3ccc(Cl)cc3)on2)cc1 | -13.8%
17 | O=C(CCC1N=C2c3ccccc3N=C(SCC(=O)Nc3ccccc3F)N2C1=O)NCc1ccco1 (stereo unspecified) | 0.806%
18 | Cc1cccc(NS(=O)(=O)c2ccc3[nH]c(=O)[nH]c3c2)c1C | 3.52%
19 | S=C(c1c[nH]c2ccc(Br)cc12)N1CCOCC1 | active: 38.3%
20 | O=C1C(NS(=O)(=O)c2cccs2)=C(N2CCN(Cc3ccccc3)CC2)C(=O)c2ccccc21 | active: 39.1%
21 | Cc1ccc(NC(=O)CN(C)S(=O)(=O)c2ccc3c(c2)n(C)c(=O)c(=O)n3C)c(C)c1 | 1.51%
22 | O=C(Nc1ccc(N2CCOCC2)c(Cl)c1)c1ccc2c(c1)OCCO2 | active: 30.5%
23 | COc1ccccc1CNc1ccc(-c2nc(-c3ccccn3)no2)cc1[N+](=O)[O-] | 7.11%
24 | COc1ccc(OC)c(NC(=O)CCNS(=O)(=O)c2cccc3nsnc23)c1 | -4.74%
25 | O=C(Cc1ccc(NC(=O)N2CCCCc3ccccc32)cc1)NCc1ccccc1Br | 2.87%
26 | Cc1cccc(CCNC(=O)C2CCC(CNS(=O)(=O)c3c(C)cc(C)cc3C)CC2)c1 (stereo unspecified) | -6.87%
